Measurements published in patent publication US20240090503A1, “FUNGICIDAL OXADIAZOLES AND THEIR MIXTURES” (FMC CORPORATION, priority 2020, published 2024).
Where “and” joins values, the source holds several entries; their conditions need not be identical. Equal values may be shown once. At least one read-out could not be matched to a standard name with certainty.

Test system: Phakopsora pachyrhizi (the causal agent of Asian soybean rust)
Test: Test E: compounds alone and mixtures sprayed on soybean seedlings, Asian soybean rust, observed and Colby-expected disease control
Format: in vivo
Parameters: key to Test E Obsd: 100 = 100% disease control, 0 = no disease control
Settings: for Test E Obsd: applied alone
Text: The general protocol for preparing test compositions for TEST E was as follows: Compound 316, Compound 376, Compound 225, Compound 229, Compound 257, Compound 394, Compound 506, Compound 507, Compound 508, Compound 509, Compound 511, Compound 512, methyl N-[[5-[1-[2,6-difluoro-4-(1-methylethyl)phenyl]-1H-pyrazol-3-yl]-2-methylphenyl]methyl]carbamate (b54.11a), methyl N-[[5-[l-(4-cyclopropyl-2,6-difluorophenyl)-1H-pyrazol-3-yl]-2-methylphenyl]methyl]carbamate (b54.11d), ethyl 1-[[4-[[(1Z)-2-ethoxy-3,3,3-trifluoro-1-propen-1-yl]oxy]phenyl]methyl]-1H-pyrazole-4-carboxylate (b54.12a), ethyl 1-[[4-[[2-(trifluoromethyl)-1,3-dioxolan-2-yl]methoxy]phenyl]methyl]-1H-pyrazole-4-carboxylate (b54.13a), azoxystrobin, benzovindiflupyr, bixafen, chlorothalonil, cyproconazole, epoxiconazole, fenpropidin, fenpropimorph, fluindapyr, flutriafol, fluxapyroxad, inpyrfluxam, metominostrobin, picoxystrobin, prothioconazole, pydiflumetofen, pyraclostrobin, tebuconazole and trifloxystrobin were obtained as unformulated, technical-grade materials. Copper hydroxide and mancozeb was obtained as a formulated product marketed under the trademarks KOCIDE 3000 and MANZATE, respectively. Unformulated materials were first dissolved in acetone and then suspended at the desired concentration (in ppm) in acetone and purified water (50/50 mixture by volume) containing 250 ppm of the surfactant Trem® 014 (polyhydric alcohol esters). Formulated materials were dispersed in sufficient water to give the desired concentration, and neither organic solvent nor surfactant was added to the suspension. The resulting test mixtures were then used in TEST E. The tests were run on four individual plants and the results reported as the mean average of the four plants.
The presence of a synergistic effect between two active ingredients can be established with the aid of the Colby equation (see Colby, S. R. “Calculating Synergistic and Antagonistic Responses of Herbicide Combinations”, Weeds, (1967), 15, 20-22):
Using the method of Colby, the presence of a synergistic interaction between two active ingredients is established by first calculating the predicted activity, p, of the mixture based on activities of the two components applied alone. If p is lower than the experimentally established effect, synergism has occurred. In the equation above, A is the fungicidal activity in percentage control of one component applied alone at rate x. The B term is the fungicidal activity in percentage control of the second component applied at rate y. The equation estimates p, the expected fungicidal activity of the mixture of A at rate x with B at rate y if their effects are strictly additive and no interaction has occurred.
The test mixture was sprayed to the point of run-off on soybean seedlings. The following day the seedlings were inoculated with a spore suspension of Phakopsora pachyrhizi (the causal agent of Asian soybean rust) and incubated in a saturated atmosphere at 22° C. for 24 h and then moved to a growth chamber at 22° C. for 8 days, after which time visual disease ratings were made.
Results for Test E are given below in Tables A-1 through K-2. Each table corresponds to a set of evaluations performed together at the same time. In each table, a rating of 100 indicates 100% disease control and a rating of 0 indicates no disease control (relative to the controls). Columns labeled “Obsd” indicate the average of results observed from test run on four individual plants. Columns labeled “Exp” indicate the expected value for each treatment mixture using the Colby equation, as described above.

[1] = Table D-1, component (b) alone: cyproconazole 37.333, azoxystrobin 95.873, trifloxystrobin 20.511 ppm
[2] = Table D-1, component (b) alone: cyproconazole 64.883, azoxystrobin 169.226, trifloxystrobin 35.310 ppm
[3] = Table D-2, component (b) alone: cyproconazole 37.333, azoxystrobin 95.873, trifloxystrobin 20.511 ppm
[4] = Table D-2, component (b) alone: cyproconazole 64.883, azoxystrobin 169.226, trifloxystrobin 35.310 ppm
[5] = Table A-1, component (b) alone: b54.13a 1.422, b54.12a 0.303, b54.11a 0.403, picoxystrobin 20.596 ppm
[6] = Table A-1, component (b) alone: b54.13a 2.276, b54.12a 0.489, b54.11a 0.652, picoxystrobin 38.865 ppm
[7] = Table A-2, component (b) alone: b54.13a 1.422, b54.12a 0.303, b54.11a 0.403, b54.11d 0.346, picoxystrobin 20.596 ppm
[8] = Table A-2, component (b) alone: b54.13a 2.276, b54.12a 0.489, b54.11a 0.652, b54.11d 0.764, picoxystrobin 33.865 ppm
[9] = Table H-1, component (b) alone: copper hydroxide 3610.778, flutriafol 544.265, fenpropidin 78.393 ppm
[10] = Table H-1, component (b) alone: copper hydroxide 7371.507, flutriafol 1124.021, fenpropidin 161.740 ppm
[11] = Table H-2, component (b) alone: copper hydroxide 3610.778, flutriafol 544.265, fenpropidin 78.393 ppm
[12] = Table H-2, component (b) alone: copper hydroxide 7371.507, flutriafol 1124.021, fenpropidin 161.740 ppm
[13] = Table C-1, component (b) alone: mancozeb 42.532, fenpropimorph 242.823, tebuconazole 486.921 ppm
[14] = Table C-1, component (b) alone: mancozeb 74.012, fenpropimorph 458.587, tebuconazole 841.166 ppm
[15] = Table C-2, component (b) alone: mancozeb 42.532, fenpropimorph 242.823, tebuconazole 486.921 ppm
[16] = Table C-2, component (b) alone: mancozeb 74.012, fenpropimorph 458.587, tebuconazole 841.166 ppm
[17] = Table G-1, component (b) alone: pydiflumetofen 41.364, pyraclostrobin 45.860, metominostrobin 29.673 ppm
[18] = Table G-1, component (b) alone: pydiflumetofen 128.793, pyraclostrobin 137.503, metominostrobin 86.003 ppm
[19] = Table G-2, component (b) alone: pydiflumetofen 41.364, pyraclostrobin 45.860, metominostrobin 29.673 ppm
[20] = Table G-2, component (b) alone: pydiflumetofen 128.793, pyraclostrobin 137.503, metominostrobin 86.003 ppm
[21] = Table F-1, component (b) alone: benzovindiflupyr 0.606, prothioconazole 10.165, chlorothalonil 138.129 ppm
[22] = Table F-1, component (b) alone: benzovindiflupyr 0.980, prothioconazole 16.339, chlorothalonil 222.081 ppm
[23] = Table F-2, component (b) alone: benzovindiflupyr 0.606, prothioconazole 10.165, chlorothalonil 138.129 ppm
[24] = Table F-2, component (b) alone: benzovindiflupyr 0.980, prothioconazole 16.339, chlorothalonil 222.081 ppm

N#CCCNC(=O)c1coc(Cc2ccc(-c3noc(C(F)(F)F)n3)cc2)n1 [Compound 229, N-(2-cyanoethyl)-2-[[4-[5-(trifluoromethyl)-1,2,4-oxadiazol-3-yl]phenyl]methyl]-4-oxazolecarboxamide]
Test E Obsd (0.964 ppm): 63
Test E Obsd (1.915 ppm): 73

CON=C(C(=O)OC)c1ccccc1CON=C(C)c1cccc(C(F)(F)F)c1 [trifloxystrobin]
Test E Obsd (disease control rating) [1]: 69%
Test E Obsd (disease control rating) [2]: 86%
Test E Obsd (disease control rating) [3]: 69%
Test E Obsd (disease control rating) [4]: 86%

COC(=O)NCc1cc(-c2ccn(-c3c(F)cc(C(C)C)cc3F)n2)ccc1C [b54.11a, methyl N-[[5-[1-[2,6-difluoro-4-(1-methylethyl)phenyl]-1H-pyrazol-3-yl]-2-methylphenyl]methyl]carbamate]
Test E Obsd (disease control rating) [5]: 34%
Test E Obsd (disease control rating) [6]: 68%
Test E Obsd (disease control rating) [7]: 34%
Test E Obsd (disease control rating) [8]: 68%

CCOC(=O)c1cnn(Cc2ccc(O/C=C(\OCC)C(F)(F)F)cc2)c1 [b54.12a, ethyl 1-[[4-[[(1Z)-2-ethoxy-3,3,3-trifluoro-1-propen-1-yl]oxy]phenyl]methyl]-1H-pyrazole-4-carboxylate]
Test E Obsd (disease control rating) [5]: 53%
Test E Obsd (disease control rating) [6]: 68%
Test E Obsd (disease control rating) [7]: 53%
Test E Obsd (disease control rating) [8]: 68%

N#CCn1ccc(Cc2ccc(-c3noc(C(F)(F)F)n3)cc2)n1 [Compound 507, 3-[4-[(1-cyanomethyl-1H-pyrazol-3-yl)methyl]phenyl]-5-(trifluoromethyl)-1,2,4-oxadiazole]
Test E Obsd (0.896 ppm): 57 and 31
Test E Obsd (1.823 ppm): 56

Fc1ccc([C@]2(Cn3cncn3)O[C@H]2c2ccccc2Cl)cc1 (racemic) [epoxiconazole]
Test E Obsd (disease control rating) (Table E-1, component (b) alone: epoxiconazole 46.795, pydiflumetofen 70.950 ppm): 23%
Test E Obsd (disease control rating) (Table E-1, component (b) alone: epoxiconazole 89.631, pydiflumetofen 135.850 ppm): 70%
Test E Obsd (disease control rating) (Table E-2, component (b) alone: epoxiconazole 46.795, pydiflumetofen 70.950 ppm): 23%
Test E Obsd (disease control rating) (Table E-2, component (b) alone: epoxiconazole 89.631, pydiflumetofen 135.850 ppm): 70%

CCOC(=O)c1cnn(Cc2ccc(OCC3(C(F)(F)F)OCCO3)cc2)c1 [b54.13a, ethyl 1-[[4-[[2-(trifluoromethyl)-1,3-dioxolan-2-yl]methoxy]phenyl]methyl]-1H-pyrazole-4-carboxylate]
Test E Obsd (disease control rating) [5]: 55%
Test E Obsd (disease control rating) [6]: 64%
Test E Obsd (disease control rating) [7]: 55%
Test E Obsd (disease control rating) [8]: 64%

COC(=O)NCc1cc(-c2ccn(-c3c(F)cc(C4CC4)cc3F)n2)ccc1C [b54.11d, methyl N-[[5-[1-(4-cyclopropyl-2,6-difluorophenyl)-1H-pyrazol-3-yl]-2-methylphenyl]methyl]carbamate]
Test E Obsd (disease control rating) [7]: 29%
Test E Obsd (disease control rating) [8]: 62%

CC(Cc1ccc(C(C)(C)C)cc1)CN1CCCCC1 (centres unmarked) [fenpropidin]
Test E Obsd (disease control rating) [9]: 45%
Test E Obsd (disease control rating) [10]: 68%
Test E Obsd (disease control rating) [11]: 45%
Test E Obsd (disease control rating) [12]: 68%

O=C(NCC(F)F)c1coc(Cc2ccc(-c3noc(C(F)(F)F)n3)cc2)n1 [Compound 225, N-(2,2-difluoroethyl)-2-[[4-[5-(trifluoromethyl)-1,2,4-oxadiazol-3-yl]phenyl]methyl]-4-oxazolecarboxamide]
Test E Obsd (0.589 ppm): 55

CC(C)(C)C(O)(CCc1ccc(Cl)cc1)Cn1cncn1 (centres unmarked) [tebuconazole]
Test E Obsd (disease control rating) [13]: 30%
Test E Obsd (disease control rating) [14]: 55%
Test E Obsd (disease control rating) [15]: 30%
Test E Obsd (disease control rating) [16]: 55%

CC(Cc1ccc(C(C)(C)C)cc1)CN1C[C@@H](C)O[C@@H](C)C1 (some centres unmarked) [fenpropimorph]
Test E Obsd (disease control rating) [13]: 33%
Test E Obsd (disease control rating) [14]: 44%
Test E Obsd (disease control rating) [15]: 33%
Test E Obsd (disease control rating) [16]: 44%

CC(C1CC1)C(O)(Cn1cncn1)c1ccc(Cl)cc1 (centres unmarked) [cyproconazole]
Test E Obsd (disease control rating) [1]: 44%
Test E Obsd (disease control rating) [2]: 68%
Test E Obsd (disease control rating) [3]: 44%
Test E Obsd (disease control rating) [4]: 68%

COC(=O)N(OC)c1ccccc1COc1ccn(-c2ccc(Cl)cc2)n1 [pyraclostrobin]
Test E Obsd (disease control rating) [17]: 35%
Test E Obsd (disease control rating) [18]: 45%
Test E Obsd (disease control rating) [19]: 35%
Test E Obsd (disease control rating) [20]: 45%

CNC(=O)/C(=N/OC)c1ccccc1Oc1ccccc1 [metominostrobin]
Test E Obsd (disease control rating) [17]: 13%
Test E Obsd (disease control rating) [18]: 37%
Test E Obsd (disease control rating) [19]: 13%
Test E Obsd (disease control rating) [20]: 37%

OC(Cn1cncn1)(c1ccc(F)cc1)c1ccccc1F (centres unmarked) [flutriafol]
Test E Obsd (disease control rating) [9]: 13%
Test E Obsd (disease control rating) [10]: 52%
Test E Obsd (disease control rating) [11]: 13%
Test E Obsd (disease control rating) [12]: 52%

OC(Cc1ccccc1Cl)(Cn1nc[nH]c1=S)C1(Cl)CC1 (centres unmarked) [prothioconazole]
Test E Obsd (disease control rating) [21]: 7%
Test E Obsd (disease control rating) [22]: 65%
Test E Obsd (disease control rating) [23]: 7%
Test E Obsd (disease control rating) [24]: 65%

N#Cc1c(Cl)c(Cl)c(Cl)c(C#N)c1Cl [chlorothalonil]
Test E Obsd (disease control rating) [21]: 59%
Test E Obsd (disease control rating) [22]: 85%
Test E Obsd (disease control rating) [23]: 59%
Test E Obsd (disease control rating) [24]: 85%

COCCNC(=O)c1coc(Cc2ccc(-c3noc(C(F)(F)F)n3)cc2)n1 [Compound 257, N-(2-methoxyethyl)-2-[[4-[5-(trifluoromethyl)-1,2,4-oxadiazol-3-yl]phenyl]methyl]-4-oxazolecarboxamide]
Test E Obsd (0.914 ppm): 36
Test E Obsd (1.828 ppm): 62 and 41
